According to the RNAGym collection of RNA variant scans (doi:10.7554/elife.90254):
The source gives no read counts; variants with many changes may rest on few reads.

B1: LINE1-mini (parent)
chain: GGCAGAGCUCAACACAGCGUGGCAAAGUGGCUGUGGCUAGACUGCC

Variants of: B1
Experiment: self-cleavage, relative activity (ratio to wild type); higher = more cleavage; in vitro, sequencing; the parent is a self-cleaving ribozyme

Variant	self-cleavage
C3U G17C C18A	0.06
U9A C10A G40A	0.05
G1C C3U A12C C18U	0.02
G2U U28A G36U C42U C46G	0.07
C8A G21U G29U	0.08
A12G G19U A26U C46U	0.02
G2U A4U C31U	0.04
U9A A16U G27A	0.1
C8U C15U C18G G35U	0.78
G2U G5A A16G G22A U32A U34G G40A C46U	0.02
A6U C8U A14C G21U	0.04
A6C C23U G35U U43C	0.06
C3U A6C A16U	0.34
G2U G29U C31U G40A	0.06
A4C A26C U28A U38C	0.02
G1U U34A A39C	0.03
G2U A25U U43A	0.07
C23U G30C U43A G44U	0.18
C3A C15U C31G	0.22
C8U C13A G21U G27C U28C U34A C45A	0.16
C8U U20C C31U G40U C45G	0.1

Variant	self-cleavage
C8G A12U G33U	0.03
G5A A6C G19C U38C	0.03
A6G G7A C15U C23A G27A G33U G35C A41G	0.52
A4G U9C C13U G17U U20C U32G G35A G36U	0.05
A6C C18G G40A	0.04
G29C G35A G36U	0.07
C13U G40U G44A	0.15
A4C A25C G40C	0.05
C3G A14C G27U C31U	0.02
A11G A12U A14C A39G	0.02
A16U C18A G30A	0.15
A12C G27C G33U A41G	0
U9G C31U G33C	0.04
A11C A12C C15A	0.02
C10U A26U C37A	0.02
U20G A25G G35C C42A	0
G17U U20C G22U A26G	0.64
C3A A4U G40U	0.11
C15G G36A G40A	0.04
A6G A14C C18U	0.09
A25G G29U C37G C42G	0.05

Variant	self-cleavage
A6C G17A G22C C45G	0.03
A11G G21C G22A	0.02
G1C U9C A14C G35U	0.02
A11C C13U A14U C23U C31U	0.01
C3U G27C G29C	0.06
C10A A12G C23A	0.02
C3U C10G C13G	0.04
A12C U20C G35U G40C	0.01
G2C G7A A11U G21U G40U C46A	0.01
C10A A12C C15G C18A G33U U38G	0.11
C8A G17C C31U	0.07
C10A G21U G29A C46G	0.03
G1A G5A A14C G19C	0.02
C8U C15G U28G C31U	0.09
G2A G22C G27A U32A G33A	0.37
G2C A11U C18A A24C	0
A11G A14U A25G G30C A39U	0.05
G5C G29U A39G	1.85
G1A C15A G21U	0.07
G19A U20A U34C	0.12
C23U G30C G35U	0.1

Variant	self-cleavage
G1A G5U C8G U9G A25C U43A	0.07
A16C G27U G36A	0.04
C15U G21C U34A	0.1
G17A U28G U34A	0.05
C3U G7U C13A G35A	0.15
C13A C18A G36U	0.01
C8U C15A A16U G35U	0.12
G1C G22A C31A	0.01
U20G A39G A41C	0
G5C A11G A16U	0.01
A11U A24G G44U C45A	0.03
A24U A26G U34C C37A	0.01
C3U G27C U34G G36A	0.02
G1U C3U C31U A39C	0.06
C3A A25G C42A	0.09
A24U U28G G29U C31G U32C G33U G35C C37U	0.1
C3A C23G C37A C45G	0.21
C10A A14U C18G G21U G27U G30U	0.04
A16U G27U G30C A39U C46U	1.12
A4U C13G C23A G27A G29A G33U G35A	0.07
G17C C31G G33A G40U	0
